Measured values: the supplement of paper PMC3334620
The full ranking holds about 33,000 sequences; the median of “E-score (-0.5 to 0.5)” is about -0.035, and the highest 2% start at about 0.34. The list shows a part of the results.

These sequences were tested against T1, Mot3 (UniProt P54785) (assay: PBM E-score (8-mer binding enrichment) (E-score (-0.5 to 0.5)); higher = stronger / more preferred TF binding; most listed sequences are background and not binding sites). Settings: protein concentration: 200 nM; construct: GST-full length.
T1 sequence: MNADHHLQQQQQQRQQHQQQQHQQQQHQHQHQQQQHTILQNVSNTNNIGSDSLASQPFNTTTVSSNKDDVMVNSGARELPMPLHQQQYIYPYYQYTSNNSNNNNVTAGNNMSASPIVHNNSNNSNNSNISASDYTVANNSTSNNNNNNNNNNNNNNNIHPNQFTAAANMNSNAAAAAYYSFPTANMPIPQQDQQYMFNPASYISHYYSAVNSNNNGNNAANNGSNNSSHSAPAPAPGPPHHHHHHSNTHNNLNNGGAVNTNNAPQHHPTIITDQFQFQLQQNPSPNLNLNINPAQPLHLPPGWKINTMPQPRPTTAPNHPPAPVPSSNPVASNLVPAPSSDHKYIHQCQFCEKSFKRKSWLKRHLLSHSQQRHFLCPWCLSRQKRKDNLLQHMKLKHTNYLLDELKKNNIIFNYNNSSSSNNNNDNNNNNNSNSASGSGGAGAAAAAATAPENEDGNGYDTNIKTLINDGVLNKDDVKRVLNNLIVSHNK
In short: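 Each ungapped eight-base word and its reverse complement, pooled, received an E-score from the Universal PBM Analysis Suite. Underlying scans, normalised with masliner, recorded fluorescent anti-GST bound to GST-tagged yeast transcription factors. These were applied at about 100-200 nM to universal all-10-mer Agilent arrays double-stranded by primer extension.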

Sequence | PBM E-score
CTGTGTCA | 0.233
AAGCAAAG | -0.00515
AGCTAAAT | -0.137
GAAAACTA | -0.0722
ATATGGCC | -0.206
CGGAGAGC | -0.172
CGGGCGTC | -0.26
CTCGATTA | 0.0598
GCAAGGCA | 0.469
GGAAACAC | 0.138
ACGTGGCT | -0.0949
AGAGTTGC | 0.00244
AGGCTGCC | -0.131
TATGTTCA | 0.2
CATACACC | -0.0972
AACGTTGA | 0.181
TGCACCAA | -0.187
AACACACG | 0.266
CGATTGTA | 0.131
ATTGCCTC | 0.331
CAAGGGTA | -0.0906
ACTGGTAA | 0.0941
CATTTCAG | 0.0934
GCCGCAGA | -0.188
GCTCGCCA | -0.114

Sequence | PBM E-score
AGCAGTTG | -0.103
AAACGTGA | 0.178
GCTCCCAA | -0.289
GCAGATGC | 0.137
TTGCTAAA | 0.0124
GTCCGCCA | -0.295
AATGCTTG | -0.0507
ACATTGTA | 0.223
TCGTTGCA | 0.114
GGCCACAC | -0.185
TAACAAAA | 0.206
AAGCCAAT | -0.0848
CACAGGCG | 0.277
CATGCCTC | 0.207
CATGCTCA | 0.0727
AGCCTTCG | 0.0956
AGAGGGTG | -0.153
GCCGCGTA | 0.243
AGTAGGCC | -0.1
AACTGGTC | -0.125
CTAGCGGC | -0.261
GTAGCTAA | 0.00767
CAGGCAGA | 0.0294
ACTGCCCA | 0.0214
CGTGAAAG | 0.108

Sequence | PBM E-score
ATTATCCC | 0.00179
ATGCGCAA | -0.188
ACCAGCTA | -0.0514
TGCAAGCA | -0.0605
CGTCATTC | 0.0277
AGATGATC | 0.0357
GTCTGCGA | -0.326
AGTCGTCG | -0.0828
CCATAGGG | -0.0579
CTAAGTGC | -0.00085
AAAGGCGT | 0.126
GCCTCAAA | -0.0438
AACCAAGG | 0.14
CAACCACG | 0.0989
GGTTATAA | -0.0249
GCTAAACA | 0.102
CTATGCCA | -0.115
CTGCAGGC | 0.406
GAAGCGAC | -0.176
AAGCCTAT | 0.168
ATCGTGGA | -0.139
CGAGGATA | -0.281
ATTTAGGC | 0.339
AACCAAAC | -0.0444
AGCACACC | -0.168

Sequence | PBM E-score
ACCAAAAA | 0.0734
CAGATCTC | -0.268
AGGCTCCC | 0.0936
ATCGTGCC | 0.27
TCCAACCA | 0.00277
ATCTAGGG | -0.206
GAGTGAAA | -0.115
GACGTCTC | -0.0253
CGAGCACG | -0.0182
AGCGAGAT | -0.266
ATCGCTTC | -0.178
CTTAAGGC | 0.314
GCAAACCA | 0.0881
GCCGAGGC | 0.0168
ATTTGGGC | -0.0729
CGTAGTTC | -0.0263
GGTTAAAC | 0.0673
AATGGGGT | 0.00375
CTGGAGCC | -0.0386
ACCCCGGT | -0.238
CCTACAGA | -0.0773
ATCCTAGG | -0.0611
AGCCGAAG | -0.15
GAGCGTAC | -0.132
AGCGATTA | -0.0748

Sequence | PBM E-score
ATTGCCAC | -0.0828
GAACGTTC | 0.0123
CTGAAAAG | 0.0248
ATCCATGA | -0.196
CAGGACCA | -0.2
CCGTGGCC | -0.31
CCTTGCAC | 0.00446
CTGAGCAA | 0.11
AAGACGGT | -0.302
CCGGTGGC | -0.431
ACCTTATC | 0.146
GCCTTCTA | 0.197
AGCCTCAA | -0.265
GTTTTTGA | 0.0827
ATGTACTC | 0.189
ACGGCATC | 0.00294
ACCCAATG | -0.122
AACTTCGT | -0.00486
CCCACCCG | -0.171
GTTGTGCA | 0.046
TCAGCTCA | -0.138
AAAGTCTG | -0.0774
CTCCGGTA | 0.0872
CTGTTCAC | -0.00516
CATCAATG | -0.104

Sequence | PBM E-score
CACTGACA | 0.177
AAGGAATC | 0.0777
GTTAGCGA | 0.0329
ACACCTGA | 0.21
ACAGGCAG | 0.239
CTCCGCTC | -0.0469
ACACGGCA | 0.25
ATGCTTCC | -0.188
ATTACCCG | -0.0107
AGTGAGGA | -0.204
AAAAGCCC | -0.259
AAAGCTTG | 0.151
GGGTTCTA | -0.176
CCTTACCC | -0.144
GCGCAGGA | -0.0722
CATACGAG | 0.0424
AATACCCT | -0.0878
CTTCTATA | 0.157
GCTTTGCC | 0.0869
AGCGGCGA | -0.228
AGTCAATA | -0.0409
AAATTCTA | 0.113
ACGGATCA | 0.0935
CCGGTATA | -0.0946
GCTTCCAA | -0.0912

Sequence | PBM E-score
AAGGTTGT | 0.115
CCCGCACA | -0.144
GCAAAGTA | 0.126
TCCCCACA | -0.274
AACCTGGG | 0.0477
TTAACTAA | 0.212
GTTTCCAA | -0.12
ATGCGCAG | -0.301
ATAGGATA | 0.00177
AGTCCCTA | -0.287
GGGTCAAA | -0.0462
GACTAAAA | -0.165
AACTTACC | -0.0117
ACGTATAG | 0.0753
CTAACAAC | 0.19
CGAATATA | 0.0883
CGATCAGA | -0.15
AGTACTTG | 0.174
TAATTGGA | 0.103
AAGTGATA | -0.0472
AAGTTTCG | -0.0327
ACCTCAAT | 0.0421
